Results on 28 variants are retold here after the supplement of paper PMC11125491.

± gives the standard deviation of the averaged measurements. Growth of baker's yeast expressing single-residue variants of Pneumocystis jirovecii dihydrofolate reductase in 8.8 or 44 µM methotrexate (about 75% and 90% inhibition of the wild type). Selection coefficient per generation; 0 = like wild type, above 0 = less sensitive, below 0 = more sensitive or loss of function. No active / inactive call per row; the paper calls resistant above 0.220 (8.8 µM) or 0.243 (44 µM) together with a significance test. At 44 µM about 15% of codons end with one read or none, so the lowest values are floors (replicate rank correlation 0.74; 0.94 at 8.8 µM).

Sequences and labels used below:
B1: UniProt A0EPZ9; numbered along this chain (parent)
chain: MDWQKSLTLIVALTLSRGIGLKNDLPWKLKSDMMFFSRVTSGLLVTRSTGQMNVVLMGRKTWESLPAHSRPLKNRINVVISRQEVLDLGGGAYHARSLDDALALLSQIYDSTSKIQLNRVFVIGGGELCKAAMEHSRLNRIIATVIHNEVDCDVFFPIDFRSSQSCLPWRKQDHSVLEAWVGSKVPQGKINENGFIYEFEMWIRDI

The series covers variants of B1. The series is described as follows: selection coefficient against synonymous wild-type codons (log2 per generation); higher = faster growth than wild type. As to conditions: with Saccharomyces cerevisiae carrying the variant on a plasmid. As to the method:
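Pooled growth of yeast carrying single-residue variants of P. jirovecii dihydrofolate reductase (own DFR1 gene intact), two passages at 30 °C, three cultures, sequenced before and after. Codons with under 15 starting reads are left out; codons of one change are averaged.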

Consider L177I, for which the “selection coefficient against synonymous wild-type codons (log2)” value (from here on “selection coefficient … (log2)”) is, setting by setting: (methotrexate 8.8 µM) 0.00532 ± 0.0097; (methotrexate 44 µM) -0.0699 ± 0.11.
Turning to Q4H, the “selection coefficient … (log2)” value by setting is: (methotrexate 8.8 µM) -0.108 ± 0.025; (methotrexate 44 µM) -0.0372 ± 0.046.
Taken in the same sequence, the figures for I123H were -0.668 ± 0.081 and -0.235 ± 0.036.
G124S: the “selection coefficient … (log2)” value (methotrexate 8.8 µM) came to 0.856 ± 0.042 and the “selection coefficient … (log2)” value (methotrexate 44 µM) stood at 1.43 ± 0.05.
Taken in the same sequence, the figures for G124C were 0.255 ± 0.025 and 0.834 ± 0.052.
As to E192R, the “selection coefficient … (log2)” value by setting is: (methotrexate 8.8 µM) 0.154 ± 0.066; (methotrexate 44 µM) 0.16 ± 0.074.
In the same order, the values of W27F are -0.206 ± 0.04 and -0.221 ± 0.11.
As to W27A, the “selection coefficient … (log2)” value reads like this: (methotrexate 8.8 µM) 0.0849 ± 0.044; (methotrexate 44 µM) 0.0545 ± 0.1.
With H174F, the “selection coefficient … (log2)” value is -0.278 ± 0.051 (methotrexate 8.8 µM) and -0.361 ± 0.038 (methotrexate 44 µM).
Taken in the same sequence, the figures for H174V were -0.228 ± 0.081 and -0.292 ± 0.12.
With L43T, the “selection coefficient … (log2)” value (methotrexate 8.8 µM) was 0.161 ± 0.034 and the “selection coefficient … (log2)” value (methotrexate 44 µM) turned out to be 0.152 ± 0.034.
In the same order, the values of K28S are -0.0923 ± 0.054 and -0.0769 ± 0.064.
Taken in the same sequence, the figures for K28F were -0.0344 ± 0.012 and -0.16 ± 0.1.
In the same order, the values of K28W are -0.168 ± 0.012 and -0.167 ± 0.064.
As for K28L, the “selection coefficient … (log2)” value was 0.0126 ± 0.047 (methotrexate 8.8 µM) and 0.00166 ± 0.14 (methotrexate 44 µM).
Consider G91W, for which the “selection coefficient … (log2)” value is -0.319 ± 0.07 (methotrexate 8.8 µM) and -0.219 ± 0.084 (methotrexate 44 µM).
As for T14G, the “selection coefficient … (log2)” value is 0.0105 ± 0.035 (methotrexate 8.8 µM) and -0.13 ± 0.13 (methotrexate 44 µM).
Taken in the same sequence, the figures for T14Q were -0.0214 ± 0.056 and -0.0679 ± 0.039.
In the same order, the values of V85G are 0.0263 ± 0.035 and -0.038 ± 0.081.
On to V85Q, for which the “selection coefficient … (log2)” value was 0.122 ± 0.026 (methotrexate 8.8 µM) and 0.205 ± 0.019 (methotrexate 44 µM).
For V85I, the “selection coefficient … (log2)” value runs as follows: (methotrexate 8.8 µM) -0.0161 ± 0.12; (methotrexate 44 µM) -0.0158 ± 0.056.
Taken in the same sequence, the figures for V150H were 0.146 ± 0.014 and 0.0224 ± 0.14.
Taken in the same sequence, the figures for V150A were 0.064 ± 0.049 and -0.00536 ± 0.056.
In the same order, the values of V122D are -0.276 ± 0.23 and 0.0173 ± 0.1.
Take N148K: the “selection coefficient … (log2)” value by setting is: (methotrexate 8.8 µM) -0.0548 ± 0.083; (methotrexate 44 µM) -0.0841 ± 0.072.
In the same order, the values of N148Q are -0.0245 ± 0.036 and -0.0514 ± 0.065.
In the same order, the values of T46L are -0.279 ± 0.16 and -0.198 ± 0.089.
Taken in the same sequence, the figures for I141G were -0.731 ± 0.13 and -0.33 ± 0.069.
